# Data as given in PubChem BioAssay AID624417 (National Center for Advancing Translational Sciences (NCATS), 2012).
# Screen size: about 410,000 compounds; about 6,400 (1.6%) were called active. Inconclusive results, whose numbers are uncertain, are shown with a selection of clear calls. Calls come from the whole dose curve; as a rule, active = well fitted inhibition curve with a large enough effect; inconclusive = small, poorly fitted or top-dose-only effect; inactive = no such curve, though single readings can be large or run the other way. No potency is given beside an inconclusive call; the fits are too rough.
# Molecular target: Glucagon-like peptide 1 receptor (Homo sapiens) (UniProt P43220)
# Experiment: qHTS of GLP-1 Receptor Inverse Agonists (Inhibition Mode); note: nearly all actives have a fitted effect of over 55% in size
# Settings: HEK293 GLP-1R CRE-luciferase, luminescence, 24 h, GLP-1R form is constitutively active; activity change, negative = inhibition: at 38.3 µM (top of the series) unless noted
# Procedure, shortened: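 qHTS in 1536-well format: reporter HEK293 cells expressing constitutive GLP-1R activity in DMEM + 10% Nu serum, 24 hr with compounds at 37 deg C, luminescence read after 12 min with detection reagent.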
# % is set by controls: 0 for no effect and ±100 for the full control effect; potency is the fitted concentration of half-maximal effect; tags give direction and shape of the fitted curve.
# Chain of UniProt P43220 (P43220 whole entry, looked up): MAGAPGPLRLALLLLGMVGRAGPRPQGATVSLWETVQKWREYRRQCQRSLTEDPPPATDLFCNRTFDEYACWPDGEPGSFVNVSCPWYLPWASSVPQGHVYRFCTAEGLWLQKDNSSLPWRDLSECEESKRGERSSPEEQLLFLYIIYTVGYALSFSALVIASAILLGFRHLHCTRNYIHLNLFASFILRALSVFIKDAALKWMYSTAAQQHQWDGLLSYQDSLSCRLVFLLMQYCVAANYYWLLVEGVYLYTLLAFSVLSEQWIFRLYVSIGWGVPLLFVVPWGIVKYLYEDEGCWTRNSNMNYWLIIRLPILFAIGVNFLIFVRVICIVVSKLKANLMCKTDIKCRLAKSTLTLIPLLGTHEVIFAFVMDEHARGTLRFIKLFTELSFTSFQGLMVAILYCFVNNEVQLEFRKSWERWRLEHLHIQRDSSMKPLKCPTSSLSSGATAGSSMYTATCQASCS
SMILES,Potency,"activity change, negative = inhibition"
CC(C)(C)c1ccc(C(O)c2ncc(-c3ccccc3)[nH]2)cc1 (configuration not stated),"inconclusive [inhibitor, partial curve, poor fit]",–
COc1ccc(CCNC(=O)c2cc(-c3ccc(Cl)c(Cl)c3)oc2C)cc1,"inconclusive [inhibitor, single point]",–
COc1ccc(OC)c(N(CC(=O)Nc2cccc(C(F)(F)F)c2)S(C)(=O)=O)c1,"inconclusive [inhibitor, single point]",–
Cc1cccc(-c2nc3c4ccccc4nc(N4CCN(c5cc(C)ccc5C)CC4)n3n2)c1,–,inactive: 6.1%
COCCn1c(=S)[nH]c2cc(C(=O)N3CCN(c4ccccc4OC)CC3)ccc2c1=O,–,inactive: 3.62%
Cn1c(=O)c(C(=O)NCCO)c(O)c2ccccc21,"inconclusive [inhibitor, partial curve]",–
Cn1cccc1Cc1nnc(SCC(=O)N2CCc3ccccc32)n1-c1ccc(F)cc1,"inconclusive [inhibitor, single point]",–
COc1cc(SC)ccc1C(=O)NCC1CCCCC1,"inconclusive [inhibitor, single point]",–
CCC(=O)NC(c1cccs1)c1cc(Cl)c2cccnc2c1O (configuration not stated),"inconclusive [inhibitor, partial curve]",–
COc1cc2[nH]c(C(=O)Nc3ccc4c(c3)OCCO4)cc2c(OC)c1OC,"inconclusive [inhibitor, single point]",–
Cc1cccc(N2CCN(C(=O)CCn3c(=O)c4cccn4c4cccnc43)CC2C)c1 (configuration not stated),"inconclusive [inhibitor, single point]",–
CN1CCN(NC(=O)c2cn(-c3ccccc3)nc2-c2cccs2)CC1,–,inactive: -19.6%
CC1=NN(C(=O)Cn2nc([N+](=O)[O-])cc2C)C(O)(C(F)(F)F)C1 (configuration not stated),–,inactive: -14.6%
COc1cccc(C(=O)Nc2cccc(-c3cn4c(C)csc4n3)c2)c1OC,–,inactive: -15.3%
CCCOc1ccc2ccccc2c1/C=N/n1c(C)nnc1-n1nc(C)cc1C,"inconclusive [inhibitor, partial curve, poor fit]",–
COc1ccc(Cl)cc1NC(=O)NCCN1CCCCC1,"inconclusive [inhibitor, partial curve, poor fit]",–
COC(=O)C1=C(C)N(Cc2ccccc2)C(=O)/C1=C\c1ccco1,"inconclusive [inhibitor, full curve]",–
O=C(Cc1ccccc1)Nc1nc(-c2cccs2)cs1,"inconclusive [inhibitor, single point]",–
Cc1ccc(CNC(=O)CCc2nc(-c3cccs3)no2)cc1,"inconclusive [inhibitor, single point]",–
O=C(Nc1ccc(F)cc1)C(c1cccc(F)c1)N1CCN(Cc2c(F)cccc2Cl)CC1 (configuration not stated),"inconclusive [inhibitor, single point]",–
C=C(C)CNC(=S)NNC(=O)CCn1c2ccc(Cl)cc2c2cc(Cl)ccc21,"inconclusive [inhibitor, partial curve, poor fit]",–
O=S(=O)(c1ccccc1)N(CC(O)COc1ccccc1)c1ccccc1 (configuration not stated),"inconclusive [inhibitor, single point]",–
COC(=O)CNC(c1ccccc1)c1cc(C)ccc1NS(=O)(=O)c1ccc(C)cc1 (configuration not stated),"inconclusive [inhibitor, partial curve, poor fit]",–

SMILES,Potency,"activity change, negative = inhibition"
COc1cccc(CNCc2cc(OC)cc(OC)c2)c1,–,inactive: -20.2%
O=C(CN1C(=O)NC2(CCCC2)C1=O)NC(c1ccccc1)c1ccccc1,"inconclusive [inhibitor, single point]",–
Cc1ccc2nc(-c3cccc(Br)c3)cc(C(=O)Nn3cnnc3)c2c1,"inconclusive [inhibitor, full curve, poor fit]",–
COc1ccc(C(=O)Nc2ccc(S(=O)(=O)N3CCc4ccccc43)cc2)cc1,"inconclusive [inhibitor, partial curve, poor fit]",–
CC(C)Cn1c(=O)c(C(=O)Nc2ccncc2)c(O)c2ccccc21,"inconclusive [inhibitor, partial curve, poor fit]",–
COc1cccc(NC(=O)c2ccc(NCCCN3CCC(C)CC3)c([N+](=O)[O-])c2)c1,"inconclusive [inhibitor, partial curve, poor fit]",–
c1ccc2c(Nc3ccc(N4CCOCC4)cc3)nc(N3CCOCC3)nc2c1,"inconclusive [inhibitor, full curve]",–
CCN(CC)c1ccc2cc(C(N)=O)/c(=N\NC(=O)c3ccncc3)oc2c1,"inconclusive [inhibitor, single point]",–
N#CCCn1cc(/C=N/NC(N)=S)c(-c2ccccc2)n1,"inconclusive [inhibitor, partial curve, poor fit]",–
Cc1ccc(NC(=O)c2sc3nc4c(cc3c2N)CN(Cc2ccccc2)CC4)cc1,"inconclusive [inhibitor, partial curve, poor fit]",–
COc1ccccc1NC(=O)C1C2CCCCC21 (configuration not stated),"inconclusive [inhibitor, full curve, poor fit]",–
CC1CCCC/C1=N/Nc1ccc([N+](=O)[O-])cc1[N+](=O)[O-] (configuration not stated),–,inactive: 9.91%
Cc1ccc(C)c(Nc2c(F)c(F)c(F)c(F)c2C(=O)O)c1,"inconclusive [inhibitor, single point]",–
COc1cc(CNc2ncnc3c2ncn3[C@H]2CN(Cc3ccccc3)C[C@@H](COC(C)=O)O2)cc(OC)c1OC,–,inactive: 11.4%
CCSC1=NC2(CCN(C(=O)NC3CCCCC3)CC2)N=C1c1ccc(Cl)cc1,–,inactive: 5.18%
CCN(CC)CCCNC(=O)c1nn(C)c2c1CS(=O)(=O)c1ccccc1-2,–,inactive: 13.1%
Cc1ccccc1Cn1c(CN2CCC(C(=O)NCCc3ccccc3)CC2)cc2ccccc21,active: 11.2 µM,–
CCN(CC)C(=O)CN(c1cccc(OC)c1)S(=O)(=O)c1ccc(C)cc1,–,inactive: -20.6%
COc1ccc2c(c1)c1c(c(=O)n(CCc3ccccc3)c(=O)n1Cc1ccc(F)cc1)n2C,–,inactive: 4.92%
CCOC(=O)c1c(-c2ccc(C)cc2)csc1NC(=O)C1CCCO1 (configuration not stated),"inconclusive [inhibitor, partial curve, poor fit]",–
Cc1cccc(C)c1N1CCc2cn[nH]c21,"inconclusive [inhibitor, partial curve]",–
Cc1ccc2sc(NC(=O)c3ccc4c(c3)OCCO4)nc2c1C,–,inactive: 11.4%
O=C(Nc1ccccc1Cl)c1ccc2nccnc2c1,–,inactive: -7.3%

SMILES,Potency,"activity change, negative = inhibition"
COC(C(=O)Nc1ccnn1C1CCN(Cc2ccc(Cl)s2)CC1)c1ccccc1 (configuration not stated),"inconclusive [inhibitor, single point]",–
COc1ccc2c(C)nc(Nc3nc(-c4ccccc4)cc(=O)[nH]3)nc2c1,–,inactive: 0.372%
C=CCOc1nc2c(c(=O)n(C)c(=O)n2C)n1Cc1ccc(Cl)cc1,–,inactive: 25.1%
O=c1c([N+](=O)[O-])cn(Cc2ccccc2)c(=O)n1Cc1ccccc1,"inconclusive [inhibitor, partial curve]",–
CCOc1ccc2nc(N(CCN(CC)CC)C(=O)c3cccc([N+](=O)[O-])c3)sc2c1,"inconclusive [inhibitor, full curve, poor fit]",–
O=C(NCCCN1CCN(c2ccc(F)cc2)CC1)c1ccc2nc(Cc3ccccc3)oc2c1,"inconclusive [inhibitor, partial curve, poor fit]",–
CC(=O)N(c1ccccc1)c1nc2ccccc2s1,"inconclusive [inhibitor, partial curve]",–
Cc1ccc(C(=O)N2c3ccccc3N=C(c3ccccc3)C2C(=O)NC(C)C)cc1 (configuration not stated),"inconclusive [inhibitor, single point]",–
O=C(O)c1ccc(NCc2cccnc2)c([N+](=O)[O-])c1,–,inactive: 6.09%
O=C(CN1C(=O)NC2(CCCCCC2)C1=O)c1ccc(Cl)s1,"inconclusive [inhibitor, single point]",–
COc1ccccc1N1CCN(C(=O)CCC(=O)N2CCN(c3ccc(F)cc3)CC2)CC1,–,inactive: -4.67%
COc1ccc2nc(C)cc(N/N=C/c3cccc(OC)c3O)c2c1,"inconclusive [inhibitor, single point]",–
Nc1ccccc1C#Cc1ccc([N+](=O)[O-])cc1,"inconclusive [inhibitor, partial curve]",–
O=C(Cn1nnc(-c2ccccc2Cl)n1)Nc1ccc(Br)cc1,"inconclusive [inhibitor, single point]",–
COC(=O)c1ccc(OCC2c3cc(OC)c(OC)cc3CCN2C(=O)c2ccc(F)cc2)cc1 (configuration not stated),–,inactive: -27.1%
CC(NC(=O)c1ccccc1[N+](=O)[O-])C1CC2CCC1C2 (configuration not stated),–,inactive: -9.68%
N#Cc1c(NC(=O)CCCN2C(=O)c3ccccc3C2=O)oc(-c2ccccc2)c1-c1ccccc1,"inconclusive [inhibitor, partial curve, poor fit]",–
Cc1nc(NCc2ccccn2)c2c3c(sc2n1)CCCC3,"inconclusive [inhibitor, single point]",–
CCCCNc1nc(Nc2ccc(C)c(Cl)c2)c2cnn(C)c2n1,"inconclusive [inhibitor, single point]",–
COc1cc(C(=O)N/N=C(\C)c2ccccn2)cc(OC)c1OC,"inconclusive [inhibitor, full curve, poor fit]",–
Cc1cc(C)nc(SSc2nc(C)cc(C)n2)n1,"inconclusive [inhibitor, single point]",–
